# Measured values reported in PMC12136788.
# This is one part of the list.
# B1: chr11:62841694:62841860:-|5pUTR|ENSG00000133316|unk|total|mutant (ssRNA)
# RNA: GGGAGUUCUACAGUCCGACGAUCGCCGCCGAGGCGACCGAAGUAAAGGUAUCGCUUCUCGGCCUUUUGGCUAAGAUCAAGUGCCGUAUCUGUUCUUAUCAGUUUAAUAUCUGAUACGUCCUCUAUCCGAGGACAAUAUAUUAACAACAGAGGAUUGAGCAUCA
# B2: chr19:48382969:48383148:-|3pUTR|ENSG00000105438|msi1_unk|total|mutant (ssRNA)
# RNA: GGGAGUUCUACAGUCCGACGAUCACUUGGGCUGUUUGCCGUUUUUUGCCUUUCCGACAAGAAAAAAAAAUCUUUCCACUCUUCCGUUUUUGAUUCUGAUGACUCGUUUUUCUUCUACUCUGUGGCCCCAAUUUUUAUAAAGUGCAACAGAGGAUUGAGCAUCA
# B3: chr12:24812190:24812291:-|3pUTR|ENSG00000060982|msi1|total|mutant (ssRNA)
# RNA: GGGAGUUCUACAGUCCGACGAUCUUUACUAUCUCCUAUCCUGACCGGUGGAAGGUUUACUGAAUUGGAAAUUGGUUGACUAUCCGUUUUUAACUAAAAUGUGCAAUAACACAUUGCAGUUUCCUCAAACCCGUUUCCUAUGAUCAACAGAGGAUUGAGCAUCA
# B4: chr6:136278143:136278257:-|CDS|ENSG00000029363|unk|FALSE|unique (ssRNA)
# RNA: GGGAGUUCUACAGUCCGACGAUCACAUCCGGUGAUAUUUGGCCUGGCCUUUCAGCUUAUGAUAAUAGUCCUAGAUCACCCCAUAGUCCUUCACCUAUUGCUACACCACCUAGUCAGAGUUCAUCUUGCUCUGAUGCUCCCAUGCAACAGAGGAUUGAGCAUCA
# B5: chr1:94529602:94529703:-|3pUTR|ENSG00000117525|msi1|total|mutant (ssRNA)
# RNA: GGGAGUUCUACAGUCCGACGAUCUGGAAGGAAAUUGGGUGCAUUUCCCGGACUUUUCUAACAUAUGUCUAUAAUACCGUGUUCCGGUUCUUUUUUUUUUCAGGAAUACAUUUGGAAAUUCAAAACAAUUGGCAAACUUUGUAUCAACAGAGGAUUGAGCAUCA
# B6: chr6:122456482:122456612:-|CDS|ENSG00000111897|unk|total|mutant (ssRNA)
# RNA: GGGAGUUCUACAGUCCGACGAUCUGCUUUGGUUUGGCUAUGUUCUAUCUUCUUCUCUCUUUACUAAUGAUCAAAGUGAAGAGCCGCAGUGAUCCCCGAGCUGCAGUGCACAAUGGGUAAGUUUUUAAAUAAGCUUCAAUAUAACAACAGAGGAUUGAGCAUCA
# B7: chr4:140550230:140550341:+|CDS|ENSG00000179387|unk|total|mutant (ssRNA)
# RNA: GGGAGUUCUACAGUCCGACGAUCGAAUUUGACAAGUUUUGGUUUGAAGAAGAACCAGAAAGCAUUAUGUAUUUCAAUUUGUACCGAGAGAAGUUUCAUGAAAAGAUUAAAGGACUUUUACUGGAUUGUAAUGCCGCACUUACUCAACAGAGGAUUGAGCAUCA
# B8: chrX:131089436:131089558:+|3pUTR|ENSG00000147256|unk|FALSE|unique (ssRNA)
# RNA: GGGAGUUCUACAGUCCGACGAUCGGGAAACCUCAAGUGUAGGUCUAAUUAGUGUUUCUGGGAUCCAAAGUUAGAGGAAAAUUUAGAUUUUAUUGCCUGGAUCUGCUUUAAAGACAAUUGGUGUUUACACCCUCUUGUCAGCAACAACAGAGGAUUGAGCAUCA
# B9: ENSG00000136451:be:win_51|CDS|ENSG00000136451|bound_else_gene|NA|bound_elsewhere_windowed (ssRNA)
# RNA: GGGAGUUCUACAGUCCGACGAUCUCACCAACAGCAGGCAGCACAGAACAGCUUGCUGCCCCUCCUGAGCUCUGCCGUGGAGCCCCCUGAUCAGAAACCAUUGCUUCCAAUACCAAUAACUCAGAAACCUCAGGGUGCACCAGACAACAGAGGAUUGAGCAUCA
# B10: ENSG00000198589:be:win_751|CDS|ENSG00000198589|bound_else_gene|NA|bound_elsewhere_windowed (ssRNA)
# RNA: GGGAGUUCUACAGUCCGACGAUCAAACCAUAUUUGUAUUGUUUCAGAACCAGCAAAGGUCUUGGCUAUUCUGCUCAUUUUGUUGGAGGCUGUUUGAUUGUAACAUCAAUAAAGUCAAAAGGAAAAGGCUUUCAACACUGUGUGCAACAGAGGAUUGAGCAUCA
# B11: chr4:186618492:186618593:-|CDS|ENSG00000083857|msi1|FALSE|unique (ssRNA)
# RNA: GGGAGUUCUACAGUCCGACGAUCGUAAUCACUACAAAGGAGAGCCUCAUUGGCUUGGAAAAUGAAUUCUUCACUUUCUUUGUUAGAGCUGUGGAUAAUGGGUCUCCAUCAAAAGAAUCUGUUGUUCUUGUCUAUGUUAAAAUCCAACAGAGGAUUGAGCAUCA
# B12: chr3:9757346:9757621:-|three_prime_utr|ENSG00000134072|control|control|control (ssRNA)
# RNA: GGGAGUUCUACAGUCCGACGAUCGUCGAGACUGCUGCGUGGAGCCGGGCACAGAACUGUCCCCCACACUGCCCCACCAGCUCUAGGGCCCUGGACCUCGGGUCAUGAUCCUCUGCGUGGGAGGGCUUGGGGGCAGCCUGCUCCCAACAGAGGAUUGAGCAUCA
# B13: chr12:48147896:48148005:-|3pUTR|ENSG00000177981|unk|total|mutant (ssRNA)
# RNA: GGGAGUUCUACAGUCCGACGAUCCUGCUUCCGUGAACGAUACUCUUUCAUUUUUCUAAAUCCGAUCAAGUUGUUAUUGAUUUCCGAUGACUUGUAUGCAAAUUUGAAAAACUUUUUUUUUUAAAGCUGAUUGGGAACUACAAACAACAGAGGAUUGAGCAUCA
# B14: chr6:122453778:122453910:-|CDS|ENSG00000111897|unk|total|mutant (ssRNA)
# RNA: GGGAGUUCUACAGUCCGACGAUCCCUUUCAGUGUGGUUUUAUGCCGGCAUGGCAGGUGCCUUUUGUUUCAUCCUCAUACAACCCGUCUUACUUAUUGAUUUUGCACAUUCAUGGAAUGAAUCGUGGGUUGAAAAAAUGGAAGACAACAGAGGAUUGAGCAUCA
# Biological target: MSI1 full-length (mouse, UniProt Q61474 1-362)
# Chain of UniProt Q61474 (Q61474 whole entry): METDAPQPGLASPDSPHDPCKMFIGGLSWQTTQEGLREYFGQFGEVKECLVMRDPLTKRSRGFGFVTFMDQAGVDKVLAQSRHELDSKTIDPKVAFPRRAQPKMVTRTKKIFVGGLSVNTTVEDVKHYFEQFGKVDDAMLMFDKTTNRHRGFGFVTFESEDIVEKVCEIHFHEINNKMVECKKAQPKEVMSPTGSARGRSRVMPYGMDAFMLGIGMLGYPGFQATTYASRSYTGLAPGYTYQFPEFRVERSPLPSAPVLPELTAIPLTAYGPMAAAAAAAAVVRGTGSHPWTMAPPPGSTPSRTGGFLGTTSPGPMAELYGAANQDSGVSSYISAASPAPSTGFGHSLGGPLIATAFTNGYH
# Experiment: nsRBNS (natural sequence RNA bind-n-seq); RBNS binding buffer (assumed for nsRBNS): 25 mM Tris pH 7.5, 150 mM KCl, 3 mM MgCl2, 0.01% Triton X-100, 500 ug/ml BSA, 20 U/ml SUPERase-In, 4 C; UNK is unkempt and MSI1 is Musashi-1; names of the RNAs are library labels; protein concentration not given here; high values mean tight binding
row,Binder,binding signal
1,B1,0.194 enrichment R
2,B2,0.578 enrichment R
3,B3,0.209 enrichment R
4,B4,2.36 enrichment R
5,B5,0.407 enrichment R
6,B6,0.389 enrichment R
7,B7,0.361 enrichment R
8,B8,20.8 enrichment R
9,B9,0.553 enrichment R
10,B10,0.279 enrichment R
11,B11,0.429 enrichment R
12,B12,0.642 enrichment R
13,B13,0.282 enrichment R
14,B14,0.257 enrichment R
